According to PMC9520037 (The Journal of Biological Chemistry, 2022):

Biological target: T1, MAP2c-1-467 with N-terminal histidine tag (H6-MAP2c) (rat, UniProt P15146-3 1-467, RED-tris-NTA fluorescent label on the histidine tag)
T1 sequence: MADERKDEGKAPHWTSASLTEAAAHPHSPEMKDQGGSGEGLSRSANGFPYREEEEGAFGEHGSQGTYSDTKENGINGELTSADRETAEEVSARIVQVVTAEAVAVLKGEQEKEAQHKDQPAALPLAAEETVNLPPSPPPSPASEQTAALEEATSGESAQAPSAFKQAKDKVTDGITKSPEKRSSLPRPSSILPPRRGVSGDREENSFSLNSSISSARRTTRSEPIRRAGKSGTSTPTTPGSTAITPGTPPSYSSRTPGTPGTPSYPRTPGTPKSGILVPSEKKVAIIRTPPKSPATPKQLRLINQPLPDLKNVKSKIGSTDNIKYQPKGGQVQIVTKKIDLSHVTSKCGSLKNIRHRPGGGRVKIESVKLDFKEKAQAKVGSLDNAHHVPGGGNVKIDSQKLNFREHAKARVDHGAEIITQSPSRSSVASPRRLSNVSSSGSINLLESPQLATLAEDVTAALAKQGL
Assay: MST

Kd: 68 ± 10 µM
B1: SH3 domain of human Abl fused to GST (GST-Abl-SH3) (domain or fragment)
chain: not shown
